Experiment [1] deals with HSkMC (human skeletal muscle cells). In words: cytotoxicity call (relative viability < 0.9). The following applies: 10 µM.
Experiment [2] deals with HepG2. Description: cytotoxicity call (relative viability < 0.9). The following applies: 10 µM.
Experiment [3] concerns S. aureus RN4220. In words: growth inhibition call (relative growth <= 0.2). The following applies: 50 µM.

Some of the results follow.

For `CN1C(=O)c2cc(NC(=O)C3CCC3)ccc2OC[C@@H]2O[C@H](CC(=O)NCCc3ccncc3)CC[C@H]21`, the cytotoxicity call in experiment [1] and in experiment [2] was “inactive” throughout. Besides, the growth inhibition call in experiment [3] is “inactive”.
`C[C@@H]1CN([C@H](C)CO)C(=O)c2cccc(NS(=O)(=O)c3ccc(F)cc3)c2O[C@@H]1CN(C)S(C)(=O)=O`: the cytotoxicity call in experiment [1] and in experiment [2] was “inactive” throughout. Besides, in experiment [3], the growth inhibition call is “inactive”.
Consider `C[C@@H]1CN([C@@H](C)CO)C(=O)c2cccc(NC(=O)Nc3ccc(C(F)(F)F)cc3)c2O[C@@H]1CN(C)S(=O)(=O)c1ccc(Cl)cc1`, for which the cytotoxicity call in experiment [1] and in experiment [2] was “inactive” throughout. Also, the growth inhibition call in experiment [3] is “inactive”.
With `O=C(NO)c1ccc(C(=O)N/N=C/[C@@H](O)[C@H](O)[C@H](O)CO)cc1`, the cytotoxicity call in experiment [1] and in experiment [2] was “inactive” each time. Further, in experiment [3], the growth inhibition call is “inactive”.
Regarding `CC(=O)N[C@@H]1CC[C@H](CCNC(=O)C2CC2)O[C@@H]1CO`, the cytotoxicity call in experiment [1] and in experiment [2] was “inactive” each time. Further, in experiment [3], the growth inhibition call was “inactive”.
For `C=C/C=C/[C@@H]1C(=C)CN2[C@H]1[C@H](Cc1ccccc1)OC(=O)[C@@H]2Cc1ccc(-n2cc(-c3cccc(/C=C/C(=O)NO)c3)nn2)cc1`, the cytotoxicity call in experiment [1] and in experiment [2] was “inactive” in each case. Moreover, the growth inhibition call in experiment [3] is “inactive”.
As to `CC(C)N1CC2(CN(Cc3ccc(-c4ccccc4)cc3)C2)Oc2c(NC(=O)c3ccncc3)cccc2C1=O`, the cytotoxicity call in experiment [1] and in experiment [2] was “inactive” in each case. Besides, the growth inhibition call in experiment [3] is “inactive”.
Take `CC(C)NC(=O)Nc1ccc2c(c1)C(=O)N([C@H](C)CO)C[C@@H](C)[C@H](CN(C)Cc1ccc(-c3ccccc3)cc1)O2`: the cytotoxicity call in experiment [1] and in experiment [2] was “inactive” throughout. For the same compound, the growth inhibition call in experiment [3] was “inactive”.
On to `Cc1ccc2[nH]c(C)cc2c1`, for which the cytotoxicity call in experiment [1] and in experiment [2] was “inactive” throughout. Besides, the growth inhibition call in experiment [3] was “inactive”.
Consider `C[C@H]1CN([C@@H](C)CO)C(=O)Cc2cc(NC(=O)Cc3cn(C)c4ccccc34)ccc2O[C@H]1CN(C)CC1CCCCC1`, for which the cytotoxicity call in experiment [1] and in experiment [2] was “inactive” each time. For the same compound, the growth inhibition call in experiment [3] is “inactive”.
On to `COc1ccc(NC(=O)Nc2ccc3c(c2)C(=O)N([C@@H](C)CO)C[C@H](C)[C@@H](CN(C)C(=O)NC2CCCCC2)OCCCC[C@H](C)O3)cc1`, for which the cytotoxicity call in experiment [1] and in experiment [2] was “inactive” in each case. In addition, the growth inhibition call in experiment [3] is “inactive”.
Regarding `CCC(=O)NNC(=O)c1cccc(O)c1`, the cytotoxicity call in experiment [1] and in experiment [2] was “inactive” each time. Further, the growth inhibition call in experiment [3] is “inactive”.
With `COc1ccc2c3c([nH]c2c1)[C@@H](CO)N(Cc1ccc(cc1)Cl)C[C@]13CCN(CCc2ccccc2)CC1`, the cytotoxicity call in experiment [1] and in experiment [2] was “active” in each case. Besides, in experiment [3], the growth inhibition call is “active”.
In the case of `C[C@@H]1CCCCO[C@@H](CN(C)C(=O)Nc2ccc(C(F)(F)F)cc2)[C@@H](C)CN([C@H](C)CO)C(=O)c2cc(NC(=O)Nc3ccc(C(F)(F)F)cc3)ccc2O1`, the cytotoxicity call in experiment [1] and in experiment [2] was “inactive” each time. Further, in experiment [3], the growth inhibition call was “inactive”.
For `COCC#Cc1cnc2c(c1)C(=O)N([C@H](C)CO)C[C@@H](C)[C@H](CN(C)C(C)=O)O2`, the cytotoxicity call in experiment [1] and in experiment [2] was “inactive” each time. Besides, in experiment [3], the growth inhibition call was “inactive”.
Take `C[C@H](CO)N1C[C@H](C)[C@H](CN(C)Cc2ccc3c(c2)OCO3)Oc2ccc(NC(=O)Cn3cnnn3)cc2CC1=O`: the cytotoxicity call in experiment [1] and in experiment [2] was “inactive” throughout. Moreover, in experiment [3], the growth inhibition call was “inactive”.
As for `COc1ccc(NC(=O)N(C)C[C@@H]2OCc3ccccc3-c3c(n(C)c4ccccc34)C(=O)N([C@H](C)CO)C[C@H]2C)c(OC)c1`, the cytotoxicity call in experiment [1] and in experiment [2] was “inactive” each time. Also, in experiment [3], the growth inhibition call is “inactive”.
As for `C[C@@H]1CN([C@@H](C)CO)C(=O)c2cc(C#CCN(C)C)cnc2O[C@@H]1CN(C)C(=O)c1cnccn1`, the cytotoxicity call in experiment [1] and in experiment [2] was “inactive” in each case. Besides, in experiment [3], the growth inhibition call was “inactive”.
Consider `C[C@H]1CCCCO[C@H](CN(C)C(=O)CCCN(C)C)[C@@H](C)CN([C@@H](C)CO)C(=O)c2cc(NC(=O)Nc3ccc(F)cc3)ccc2O1`, for which the cytotoxicity call in experiment [1] and in experiment [2] was “inactive” throughout. In addition, the growth inhibition call in experiment [3] was “inactive”.
In the case of `C[C@@H]1CCCCO[C@H](CN(C)CC2CC2)[C@H](C)CN([C@@H](C)CO)C(=O)c2cc(NS(=O)(=O)c3ccc(Cl)cc3)ccc2O1`, the cytotoxicity call in experiment [1] and in experiment [2] was “inactive” throughout. In addition, the growth inhibition call in experiment [3] is “inactive”.
As for `C[C@@H]1CN([C@@H](C)CO)C(=O)Cc2cc(NC(=O)Nc3cccc4ccccc34)ccc2O[C@@H]1CN(C)Cc1ccc(-c2ccccc2)cc1`, the cytotoxicity call in experiment [1] and in experiment [2] was “inactive” in each case. Besides, the growth inhibition call in experiment [3] is “inactive”.
As for `CO[C@@H]1CN(C)C(=O)c2cc(NS(C)(=O)=O)ccc2OC[C@H](C)N(C(=O)CN(C)C)C[C@H]1C`, the cytotoxicity call in experiment [1] and in experiment [2] was “inactive” in each case. In addition, the growth inhibition call in experiment [3] was “inactive”.
On to `Cc1noc(C)c1S(=O)(=O)Nc1ccc2c(c1)CC(=O)N([C@H](C)CO)C[C@H](C)[C@H](CN(C)S(=O)(=O)c1cccs1)O2`, for which the cytotoxicity call in experiment [1] and in experiment [2] was “inactive” throughout. Also, in experiment [3], the growth inhibition call was “inactive”.
As for `COc1cc(C(=O)NCCCCCC(=O)O)cc(OC)c1OC`, the cytotoxicity call in experiment [1] and in experiment [2] was “inactive” each time. Further, in experiment [3], the growth inhibition call is “inactive”.
As to `COc1ccc(NC(=O)Nc2ccc3c(c2)C(=O)N([C@@H](C)CO)C[C@H](C)[C@@H](CN(C)S(=O)(=O)c2ccc(Cl)cc2)OCCCC[C@H](C)O3)cc1`, the cytotoxicity call in experiment [1] and in experiment [2] was “inactive” in each case. In addition, the growth inhibition call in experiment [3] is “inactive”.
In the case of `Cc1ccc(S(=O)(=O)Nc2ccc3c(c2)C(=O)N([C@@H](C)CO)C[C@@H](C)[C@@H](CN(C)Cc2ccc4c(c2)OCO4)OCCCC[C@@H](C)O3)cc1`, the cytotoxicity call in experiment [1] and in experiment [2] was “inactive” each time. In addition, the growth inhibition call in experiment [3] was “inactive”.
`CCN1CCN(C(=O)N[C@@H](C(=O)N[C@@H]2C(=O)N3[C@@H]2SC(C)(C)[C@@H]3C(=O)O)c2ccccc2)C(=O)C1=O`: the cytotoxicity call in experiment [1] and in experiment [2] was “inactive” throughout. Besides, the growth inhibition call in experiment [3] was “active”.
As for `C[C@@H]1CN([C@H](C)CO)S(=O)(=O)c2ccc(C#C[C@@H](C)O)cc2O[C@H]1CN(C)C`, the cytotoxicity call in experiment [1] and in experiment [2] was “inactive” throughout. Besides, the growth inhibition call in experiment [3] is “inactive”.

(Values after the antibiotic and cytotoxicity screens of Wong et al. (2023).)
